# The supplement of paper PMC8728848
# This is one part of the list.
# B1: PX14343A-bvu-539-29-539 (Bacteroides vulgatus) (protein)
# chain: DSLTESSSNTFWQTPDDALMALASCYDALQSNQLYNSDQYSLGPLYMDCISDNGGHFNWSGWMEGYDMAMGIHTPSSSIIGSYWKDCYEVISRCNVLIANIDRVDMDASQKAIYQAEAKTIRALMYINLTMTYQDVPFLTAPLTIDEAECEKTDRAAIVAHVMTDLQDAAEVLPQNASSRGHITKGAALSLLGRVALYNEKWDDAIAAYKQVQGLGYSLDPSYAKLFTQSGETSPEIIFAVRYEGPGMSEGAAFNAHWNTPLEAMNGTIDLADAYYCKDGKPTTDTKIAELNGGGGLDVSKPNPAHFENRDPRLYSTLFVPGMLWNGKGGIDTSASNPYANVYGGAAASLSTVYVYKYFDPTDTSNSWDNGQDFYVVRYAEVLLSLAEAMVQKGGYVYSDVTALVNEVRQRADVNMPTVEEVEGTSLSKDELLEVIKHERRVELAFEGLRLFDLYRWKELDKAVANIENERTMYGLAYEARKFNGERDYVWPLPTAELDTNKKLVQHDLWK
# Assays:
# Experiment in all cases: glycan array binding signal (z-score within array); higher = stronger binding
# Conditions in all cases: glycan notation: IUPAC condensed, linker removed
# GalNAc(b1-3)Gal = molecular target: GalNAc(b1-3)Gal
# Summary of the method: (§1)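 Glycan array binding is given as a within-array Z-score, which can be read as non-binding when negative. The arrays, 3228 of them, came from the Consortium for Functional Glycomics database and were retained only where the protein sequence was available. Z-scores were averaged across arrays of the same protein sequence at different concentrations or buffers and across linkers.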
# [1] = molecular target: GalNAc(b1-3)Gal(a1-4)Gal(b1-4)GlcNAc
# Summary of the method: as §1
# [2] = molecular target: GalNAc(b1-3)Gal(a1-4)Gal(b1-4)GlcNAc(b1-3)Gal(b1-4)Glc
# Summary of the method: as §1
# [3] = molecular target: GalNAc(b1-3)Gal(a1-6)Gal(b1-4)Glc
# Summary of the method: as §1
# GalNAc(b1-3)GalNAc = molecular target: GalNAc(b1-3)GalNAc
# Summary of the method: as §1
# GalNAc(b1-3)GlcNAc = molecular target: GalNAc(b1-3)GlcNAc
# Summary of the method: as §1
# GalNAc(b1-4)Gal(b1-4)Glc = molecular target: GalNAc(b1-4)Gal(b1-4)Glc
# Summary of the method: as §1
# GalNAc(b1-4)GlcNAc = molecular target: GalNAc(b1-4)GlcNAc
# Summary of the method: as §1
# [4] = molecular target: GalNAc(b1-4)GlcNAc(b1-2)Man
# Summary of the method: as §1
# [5] = molecular target: GalNAc(b1-4)GlcNAc(b1-2)Man(a1-3)[GalNAc(b1-4)GlcNAc(b1-2)Man(a1-6)]Man(b1-4)GlcNAc(b1-4)GlcNAc
# Summary of the method: as §1
# [6] = molecular target: GalNAc(b1-4)GlcNAc(b1-3)GalNAc(b1-4)GlcNAc
# Summary of the method: as §1
# GalNAc(b1-4)GlcNAc6S = molecular target: GalNAc(b1-4)GlcNAc6S
# Summary of the method: as §1
# GalNAc(b1-6)GalNAc = molecular target: GalNAc(b1-6)GalNAc
# Summary of the method: as §1
# GalNAc3S(b1-4)GlcNAc = molecular target: GalNAc3S(b1-4)GlcNAc
# Summary of the method: as §1
# GalNAc3S(b1-4)GlcNAc3S = molecular target: GalNAc3S(b1-4)GlcNAc3S
# Summary of the method: as §1
# [7] = molecular target: GalNAc3S(b1-4)[Fuc(a1-3)]GlcNAc
# Summary of the method: as §1
# GalNAc4S6S(b1-4)GlcNAc = molecular target: GalNAc4S6S(b1-4)GlcNAc
# Summary of the method: as §1
# GalNAc6S(b1-4)GlcNAc = molecular target: GalNAc6S(b1-4)GlcNAc
# Summary of the method: as §1
# Glc(a1-4)Glc = molecular target: Glc(a1-4)Glc
# Summary of the method: as §1
# [8] = molecular target: Glc(a1-4)Glc(a1-4)Glc(a1-4)Glc
# Summary of the method: as §1
# Glc(a1-6)Glc(a1-6)Glc = molecular target: Glc(a1-6)Glc(a1-6)Glc
# Summary of the method: as §1
# [9] = molecular target: Glc(a1-6)Glc(a1-6)Glc(a1-6)Glc
# Summary of the method: as §1
# Glc(b1-4)Glc = molecular target: Glc(b1-4)Glc
# Summary of the method: as §1
# Glc(b1-6)Glc = molecular target: Glc(b1-6)Glc
# Summary of the method: as §1
# GlcA(b1-3)Gal = molecular target: GlcA(b1-3)Gal
# Summary of the method: as §1
# GlcA(b1-3)GlcNAc = molecular target: GlcA(b1-3)GlcNAc
# Summary of the method: as §1
# GlcA(b1-6)Gal = molecular target: GlcA(b1-6)Gal
# Summary of the method: as §1
# [10] = molecular target: GlcA3S(b1-3)Gal(b1-4)GlcNAc(b1-2)Man
# Summary of the method: as §1
# [11] = molecular target: GlcA3S(b1-3)Gal(b1-4)GlcNAc(b1-3)Gal(b1-4)Glc
# Summary of the method: as §1
# [12] = molecular target: GlcNAc(a1-3)Gal(b1-4)GlcNAc
# Summary of the method: as §1
# [13] = molecular target: GlcNAc(a1-4)Gal(b1-3)GlcNAc
# Summary of the method: as §1
# [14] = molecular target: GlcNAc(a1-4)Gal(b1-4)GalNAc
# Summary of the method: as §1
# [15] = molecular target: GlcNAc(a1-4)Gal(b1-4)GlcNAc
# Summary of the method: as §1
# [16] = molecular target: GlcNAc(a1-4)Gal(b1-4)GlcNAc(b1-3)Gal(b1-4)Glc
# Summary of the method: as §1
# [17] = molecular target: GlcNAc(a1-4)Gal(b1-4)GlcNAc(b1-3)Gal(b1-4)GlcNAc
# Summary of the method: as §1
# [18] = molecular target: GlcNAc(a1-4)Gal(b1-4)GlcNAc(b1-3)Gal(b1-4)GlcNAc(b1-3)Gal(b1-4)GlcNAc
# Summary of the method: as §1
# [19] = molecular target: GlcNAc(a1-4)Gal(b1-4)GlcNAc(b1-3)Gal(b1-4)[Fuc(a1-3)]GlcNAc(b1-3)Gal(b1-4)[Fuc(a1-3)]GlcNAc
# Summary of the method: as §1
# [20] = molecular target: GlcNAc(a1-6)Gal(b1-4)GlcNAc
# Summary of the method: as §1
binder,measurement,setting,value
B1,glycan array binding signal (z-score),GalNAc(b1-3)Gal,-0.17
same,glycan array binding signal (z-score),[1],-0.221
same,glycan array binding signal (z-score),[2],-0.121
same,glycan array binding signal (z-score),[3],0.113
same,glycan array binding signal (z-score),GalNAc(b1-3)GalNAc,-0.33
same,glycan array binding signal (z-score),GalNAc(b1-3)GlcNAc,-0.119
same,glycan array binding signal (z-score),GalNAc(b1-4)Gal(b1-4)Glc,0.018
same,glycan array binding signal (z-score),GalNAc(b1-4)GlcNAc,0.181
same,glycan array binding signal (z-score),[4],-0.367
same,glycan array binding signal (z-score),[5],-0.084
same,glycan array binding signal (z-score),[6],0.044
same,glycan array binding signal (z-score),GalNAc(b1-4)GlcNAc6S,-0.311
same,glycan array binding signal (z-score),GalNAc(b1-6)GalNAc,-0.292
same,glycan array binding signal (z-score),GalNAc3S(b1-4)GlcNAc,-0.514
same,glycan array binding signal (z-score),GalNAc3S(b1-4)GlcNAc3S,-0.023
same,glycan array binding signal (z-score),[7],-0.399
same,glycan array binding signal (z-score),GalNAc4S6S(b1-4)GlcNAc,-0.297
same,glycan array binding signal (z-score),GalNAc6S(b1-4)GlcNAc,-0.312
same,glycan array binding signal (z-score),Glc(a1-4)Glc,-0.182
same,glycan array binding signal (z-score),[8],0.065
same,glycan array binding signal (z-score),Glc(a1-6)Glc(a1-6)Glc,-0.375
same,glycan array binding signal (z-score),[9],-0.337
same,glycan array binding signal (z-score),Glc(b1-4)Glc,-0.377
same,glycan array binding signal (z-score),Glc(b1-6)Glc,-0.302
same,glycan array binding signal (z-score),GlcA(b1-3)Gal,-0.448
same,glycan array binding signal (z-score),GlcA(b1-3)GlcNAc,-0.241
same,glycan array binding signal (z-score),GlcA(b1-6)Gal,-0.375
same,glycan array binding signal (z-score),[10],-0.318
same,glycan array binding signal (z-score),[11],-0.242
same,glycan array binding signal (z-score),[12],-0.371
same,glycan array binding signal (z-score),[13],-0.426
same,glycan array binding signal (z-score),[14],-0.259
same,glycan array binding signal (z-score),[15],-0.419
same,glycan array binding signal (z-score),[16],-0.195
same,glycan array binding signal (z-score),[17],-0.254
same,glycan array binding signal (z-score),[18],-0.067
same,glycan array binding signal (z-score),[19],-0.099
same,glycan array binding signal (z-score),[20],-0.284
